# Measurements from the supplement of paper PMC8728848.
# The other results are listed elsewhere or left out.
# B1: Sebin2 (Coprinopsis cinerea), A8PE78 (protein)
# chain: MTTPFYAYCHNVQDDNTWRLGLVFANRSTADEWWRAISEATSSIPITKSITRVTPQYYTHDIRVWNMYNFFVDGNIKSISDKFRGRLFITLEYDRSGRGVSVFPPLHIVDHVSGNWYYIRSKTAPHLFWFYDETRNAIYASKEKRTRFKVSIRNPSPQTPKDAIMINSDDVVIHIKESLYVGVDSYLGHIIPTRAYRTFKFGELEGGAIAGIEVAENAEERCSSTFDGASLYFVGPDSSSPGEPWELV
# Tests used:
# Experiment in all cases: glycan array binding signal (z-score within array); higher = stronger binding
# Details in all cases: glycan notation: IUPAC condensed, linker removed
# [1] = molecular target: Gal(b1-4)GlcNAc(b1-2)Man(a1-6)[GlcNAc(b1-2)Man(a1-3)]Man(b1-4)GlcNAc(b1-4)GlcNAc
# In short: (§1)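 The binding signal is a Z-score computed within each array and averaged over linkers. Arrays of the same protein sequence at different concentrations or buffers were also averaged together. Data originate from 3228 arrays in the Consortium for Functional Glycomics database, kept only where the protein sequence was available.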
# [2] = molecular target: Gal(b1-4)GlcNAc(b1-2)Man(a1-6)[Man(a1-3)]Man(b1-4)GlcNAc(b1-4)GlcNAc
# In short: as §1
# [3] = molecular target: Gal(b1-4)GlcNAc(b1-2)[Gal(b1-4)GlcNAc(b1-4)]Man(a1-3)[Gal(b1-4)GlcNAc(b1-2)Man(a1-6)]Man(b1-4)GlcNAc(b1-4)GlcNAc
# In short: as §1
# [4] = molecular target: Gal(b1-4)GlcNAc(b1-2)[Gal(b1-4)GlcNAc(b1-4)]Man(a1-3)[Gal(b1-4)GlcNAc(b1-2)[Gal(b1-4)GlcNAc(b1-6)]Man(a1-6)]Man(b1-4)GlcNAc(b1-4)GlcNAc
# In short: as §1
# [5] = molecular target: Gal(b1-4)GlcNAc(b1-2)[Gal(b1-4)GlcNAc(b1-4)]Man(a1-3)[GlcNAc(b1-4)][Gal(b1-4)GlcNAc(b1-2)Man(a1-6)]Man(b1-4)GlcNAc(b1-4)GlcNAc
# In short: as §1
# [6] = molecular target: Gal(b1-4)GlcNAc(b1-2)[Gal(b1-4)GlcNAc(b1-4)]Man(a1-3)[GlcNAc(b1-4)][Gal(b1-4)GlcNAc(b1-2)[Gal(b1-4)GlcNAc(b1-6)]Man(a1-6)]Man(b1-4)GlcNAc(b1-4)GlcNAc
# In short: as §1
# [7] = molecular target: Gal(b1-4)GlcNAc(b1-2)[Gal(b1-4)GlcNAc(b1-6)]Man(a1-6)[Gal(b1-4)GlcNAc(b1-2)Man(a1-3)]Man(b1-4)GlcNAc(b1-4)GlcNAc
# In short: as §1
# [8] = molecular target: Gal(b1-4)GlcNAc(b1-2)[Gal(b1-4)GlcNAc(b1-6)]Man(a1-6)[Gal(b1-4)GlcNAc(b1-2)Man(a1-3)]Man(b1-4)GlcNAc(b1-4)[Fuc(a1-6)]GlcNAc
# In short: as §1
# [9] = molecular target: Gal(b1-4)GlcNAc(b1-2)[Gal(b1-4)GlcNAc(b1-6)]Man(a1-6)[GlcNAc(b1-4)][Gal(b1-4)GlcNAc(b1-2)Man(a1-3)]Man(b1-4)GlcNAc(b1-4)GlcNAc
# In short: as §1
# [10] = molecular target: Gal(b1-4)GlcNAc(b1-2)[Gal(b1-4)GlcNAc(b1-6)]Man(a1-6)[GlcNAc(b1-4)][Gal(b1-4)GlcNAc(b1-2)[Gal(b1-4)GlcNAc(b1-4)]Man(a1-3)]Man(b1-4)GlcNAc(b1-4)[Fuc(a1-6)]GlcNAc
# In short: as §1
# [11] = molecular target: Gal(b1-4)GlcNAc(b1-3)Gal(b1-3)GalNAc
# In short: as §1
# [12] = molecular target: Gal(b1-4)GlcNAc(b1-3)Gal(b1-3)GlcNAc
# In short: as §1
# [13] = molecular target: Gal(b1-4)GlcNAc(b1-3)Gal(b1-4)Glc
# In short: as §1
# [14] = molecular target: Gal(b1-4)GlcNAc(b1-3)Gal(b1-4)GlcNAc
# In short: as §1
# [15] = molecular target: Gal(b1-4)GlcNAc(b1-3)Gal(b1-4)GlcNAc(b1-2)Man(a1-3)[Gal(b1-4)GlcNAc(b1-3)Gal(b1-4)GlcNAc(b1-2)Man(a1-6)]Man(b1-4)GlcNAc(b1-4)GlcNAc
# In short: as §1
# [16] = molecular target: Gal(b1-4)GlcNAc(b1-3)Gal(b1-4)GlcNAc(b1-2)Man(a1-3)[Gal(b1-4)GlcNAc(b1-3)Gal(b1-4)GlcNAc(b1-2)Man(a1-6)]Man(b1-4)GlcNAc(b1-4)[Fuc(a1-6)]GlcNAc
# In short: as §1
# [17] = molecular target: Gal(b1-4)GlcNAc(b1-3)Gal(b1-4)GlcNAc(b1-2)[Gal(b1-4)GlcNAc(b1-3)Gal(b1-4)GlcNAc(b1-6)]Man(a1-6)[Gal(b1-4)GlcNAc(b1-3)Gal(b1-4)GlcNAc(b1-2)Man(a1-3)]Man(b1-4)GlcNAc(b1-4)GlcNAc
# In short: as §1
# [18] = molecular target: Gal(b1-4)GlcNAc(b1-3)Gal(b1-4)GlcNAc(b1-2)[Gal(b1-4)GlcNAc(b1-3)Gal(b1-4)GlcNAc(b1-6)]Man(a1-6)[Gal(b1-4)GlcNAc(b1-3)Gal(b1-4)GlcNAc(b1-2)Man(a1-3)]Man(b1-4)GlcNAc(b1-4)[Fuc(a1-6)]GlcNAc
# In short: as §1
binder,measurement,setting,value
B1,glycan array binding signal (z-score),[1],-0.185
same,glycan array binding signal (z-score),[2],0.215
same,glycan array binding signal (z-score),[3],-0.132
same,glycan array binding signal (z-score),[4],-0.409
same,glycan array binding signal (z-score),[5],-0.1
same,glycan array binding signal (z-score),[6],-0.138
same,glycan array binding signal (z-score),[7],-0.369
same,glycan array binding signal (z-score),[8],-0.177
same,glycan array binding signal (z-score),[9],-0.007
same,glycan array binding signal (z-score),[10],-0.526
same,glycan array binding signal (z-score),[11],-0.178
same,glycan array binding signal (z-score),[12],-0.143
same,glycan array binding signal (z-score),[13],-0.052
same,glycan array binding signal (z-score),[14],-0.478
same,glycan array binding signal (z-score),[15],-0.122
same,glycan array binding signal (z-score),[16],0.032
same,glycan array binding signal (z-score),[17],0.304
same,glycan array binding signal (z-score),[18],-0.085
